The data scatter; read single values as rough.

Results on 74 sequences are retold here after the supplement of paper PMC12067230.
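Note: [psi-pin-] Saccharomyces cerevisiae expressing SupN fusions, induced by 100 µM Cu2SO4, selected 7 d at 30 °C without adenine and uracil, scored by deep sequencing of output versus input.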

The nature of one series: amyloid nucleation score relative to library mode (yeast Sup35 reporter selection) (log enrichment difference); higher = more amyloid nucleation; sequences are the first 22 residues of the Bri2 peptide extended by up to 12 random residues. Conditions: random library (experiment): 1;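 active = nucleation score significantly above 0 at FDR 0.05; inactive = not significantly above 0 or absent from output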.
As to EASNCFAIRHFENKFAVETLICHYWRSWTWLGL, the amyloid nucleation score result was “inactive”.

Sequence EASNCFAIRHFENKFAVETLICIADKGYRINSAL returned an amyloid nucleation score of 1.45.

In the case of EASNCFAIRHFENKFAVETLICIAFSLSVYGMYL, the amyloid nucleation score result was “inactive”.

For EASNCFAIRHFENKFAVETLICIAGIVT, the amyloid nucleation score result is “inactive”.

With EASNCFAIRHFENKFAVETLICIAHGGLRTLAL, the amyloid nucleation score result was “inactive”.

As to EASNCFAIRHFENKFAVETLICIAM, the amyloid nucleation score amounted to 2.91.

For the sequence EASNCFAIRHFENKFAVETLICIAQPGVLMMCSQ, the amyloid nucleation score stood at 4.61.

With EASNCFAIRHFENKFAVETLICIARFHHSRSTRR, the amyloid nucleation score result was “inactive”.

Consider EASNCFAIRHFENKFAVETLICIASIMWR, for which the amyloid nucleation score result is “inactive”.

As to EASNCFAIRHFENKFAVETLICIAVRYFISVSRM, the amyloid nucleation score result was “inactive”.

As to EASNCFAIRHFENKFAVETLICIAYGKWLRGCAS, the amyloid nucleation score was found to be 2.26.

Regarding EASNCFAIRHFENKFAVETLICICDGYVFSVVAE, the amyloid nucleation score result was “inactive”.

On to EASNCFAIRHFENKFAVETLICICGGL, for which the amyloid nucleation score worked out at 7.22.

Regarding EASNCFAIRHFENKFAVETLICICKLRLQLTCLD, the amyloid nucleation score entry was “inactive”.

In the case of EASNCFAIRHFENKFAVETLICICPRSACGEMST, the amyloid nucleation score was 6.74.

For the sequence EASNCFAIRHFENKFAVETLICICSFSVL, the amyloid nucleation score result was “inactive”.

EASNCFAIRHFENKFAVETLICICSNSDRFCFDG came in with an amyloid nucleation score of 5.83.

Turning to EASNCFAIRHFENKFAVETLICICVCHVIRSVLE, the amyloid nucleation score result was “inactive”.

Consider EASNCFAIRHFENKFAVETLICICVWPLRLRGNV, for which the amyloid nucleation score result was “inactive”.

In the case of EASNCFAIRHFENKFAVETLICIDCTSF, the amyloid nucleation score amounted to 6.6.

For the sequence EASNCFAIRHFENKFAVETLICIDHLPRQDFFHV, the amyloid nucleation score was determined as 1.93.

On to EASNCFAIRHFENKFAVETLICIDHMALPWFTGA, for which the amyloid nucleation score was found to be 6.15.

Turning to EASNCFAIRHFENKFAVETLICIDKRVVSCTLFR, the amyloid nucleation score entry was “inactive”.

As for EASNCFAIRHFENKFAVETLICIDLGGLEGTPSV, the amyloid nucleation score entry is “inactive”.

Still in this series, the particulars now being: random library (experiment): 2.
The sequence EASNCFAIRHFENKFAVETLICHYVMDRNSVSLE registered an amyloid nucleation score of 1.96.

As to EASNCFAIRHFENKFAVETLICIA, the amyloid nucleation score entry is “inactive”.

In the case of EASNCFAIRHFENKFAVETLICIAAFGNLVVQWW, the amyloid nucleation score entry is “inactive”.

In turn, EASNCFAIRHFENKFAVETLICIACIRNPFYSSD displayed an amyloid nucleation score of 6.68.

EASNCFAIRHFENKFAVETLICIACVPDV: the amyloid nucleation score was 6.77.

The sequence EASNCFAIRHFENKFAVETLICIADFERSTHGYK registered an amyloid nucleation score of 2.29.

As for EASNCFAIRHFENKFAVETLICIAMFTFMDKTRS, the amyloid nucleation score entry was “inactive”.

EASNCFAIRHFENKFAVETLICIANRRYCDGNAR showed an amyloid nucleation score of 0.607.

Regarding EASNCFAIRHFENKFAVETLICIANYRCETRILL, the amyloid nucleation score entry is “inactive”.

Take EASNCFAIRHFENKFAVETLICIAPGN: the amyloid nucleation score entry is “inactive”.

Regarding EASNCFAIRHFENKFAVETLICIAYMFVQEGVFS, the amyloid nucleation score entry is “inactive”.

For the sequence EASNCFAIRHFENKFAVETLICICCNTTVYHWVG, the amyloid nucleation score was 6.45.

On to EASNCFAIRHFENKFAVETLICICCWLVFVISNT, for which the amyloid nucleation score result was “inactive”.

With EASNCFAIRHFENKFAVETLICICENHSYARDSG, the amyloid nucleation score was determined as 7.01.

In the case of EASNCFAIRHFENKFAVETLICICGGDTIEDLME, the amyloid nucleation score stood at 7.15.

With EASNCFAIRHFENKFAVETLICICHMGCHENM, the amyloid nucleation score is 5.99.

On to EASNCFAIRHFENKFAVETLICICIIFTFWCE, for which the amyloid nucleation score entry was “inactive”.

As to EASNCFAIRHFENKFAVETLICICMFGRRLSVCI, the amyloid nucleation score result was “inactive”.

Sequence EASNCFAIRHFENKFAVETLICICPGSLEDLCVG yielded an amyloid nucleation score of 5.47.

EASNCFAIRHFENKFAVETLICICPGSYPRLCE yielded an amyloid nucleation score of 6.66.

For the sequence EASNCFAIRHFENKFAVETLICICQEILTFRYRT, the amyloid nucleation score result is “inactive”.

Sequence EASNCFAIRHFENKFAVETLICICREQQGPGLSS came in with an amyloid nucleation score of 3.89.

In the case of EASNCFAIRHFENKFAVETLICICRGHHKGVIYD, the amyloid nucleation score entry is “inactive”.

In the case of EASNCFAIRHFENKFAVETLICICRLSDTLCTVG, the amyloid nucleation score result is “inactive”.

EASNCFAIRHFENKFAVETLICICTGSAYTNRTM: the amyloid nucleation score was 6.78.

Turning to EASNCFAIRHFENKFAVETLICICVQSKRSWLIR, the amyloid nucleation score came to 2.86.

In the case of EASNCFAIRHFENKFAVETLICICWNVNC, the amyloid nucleation score was 7.09.

With EASNCFAIRHFENKFAVETLICIDAIWNVWLLVY, the amyloid nucleation score entry is “inactive”.

As for EASNCFAIRHFENKFAVETLICIDCVCQHVAMCH, the amyloid nucleation score result is “inactive”.

EASNCFAIRHFENKFAVETLICIDENDEWLYNPG: the amyloid nucleation score entry was “inactive”.

Take EASNCFAIRHFENKFAVETLICIDIPNQPGMPGL: the amyloid nucleation score entry was “inactive”.

In turn, EASNCFAIRHFENKFAVETLICIDISAYISAVQV showed an amyloid nucleation score of 0.536.

With EASNCFAIRHFENKFAVETLICIDLRSWRSMGIG, the amyloid nucleation score was 3.27.

The same series, now with this note: random library (experiment): 3.
Turning to EASNCFAIRHFENKFAVETLICIALLCIYDYCSL, the amyloid nucleation score entry was “inactive”.

Regarding EASNCFAIRHFENKFAVETLICIAMDMRSCVRSF, the amyloid nucleation score result is “inactive”.

Regarding EASNCFAIRHFENKFAVETLICIAMVWRMNDSKT, the amyloid nucleation score entry was “inactive”.

As for EASNCFAIRHFENKFAVETLICIANPRSVGRPAT, the amyloid nucleation score entry was “inactive”.

As to EASNCFAIRHFENKFAVETLICIARKVFFICRRY, the amyloid nucleation score entry is “inactive”.

On to EASNCFAIRHFENKFAVETLICIASMPVFRTFTA, for which the amyloid nucleation score entry is “inactive”.

On to EASNCFAIRHFENKFAVETLICIASTSL, for which the amyloid nucleation score result is “inactive”.

For the sequence EASNCFAIRHFENKFAVETLICIAVWTAFTSVAG, the amyloid nucleation score result is “inactive”.

In the case of EASNCFAIRHFENKFAVETLICICKWLWPVWNEA, the amyloid nucleation score result is “inactive”.

As for EASNCFAIRHFENKFAVETLICICPKCPWGCGPK, the amyloid nucleation score worked out at 7.43.

In turn, EASNCFAIRHFENKFAVETLICICRMCYSEATDT had an amyloid nucleation score of 7.49.

Regarding EASNCFAIRHFENKFAVETLICIDDGEVQARRAW, the amyloid nucleation score entry is “inactive”.

On to EASNCFAIRHFENKFAVETLICIDETYLF, for which the amyloid nucleation score result was “inactive”.

Turning to EASNCFAIRHFENKFAVETLICIDGQSGGWACFS, the amyloid nucleation score is 7.96.

Turning to EASNCFAIRHFENKFAVETLICIDGVYYSLGGAA, the amyloid nucleation score came out at 4.77.

Consider EASNCFAIRHFENKFAVETLICIDHIFFYFRSFA, for which the amyloid nucleation score result is “inactive”.

Consider EASNCFAIRHFENKFAVETLICIDLECSEGGFSL, for which the amyloid nucleation score is 4.11.
